Over roughly 33,000 sequences, “E-score (-0.5 to 0.5)” has its median near -0.054; the highest 2% begin near 0.35. The list shows a part of the results.
What follows are sequences tested against T1, Stb5 (UniProt P38699) (assay: PBM E-score (8-mer binding enrichment) (E-score (-0.5 to 0.5)); higher = stronger / more preferred TF binding; most listed sequences are background and not binding sites). Conditions: protein concentration: 200 nM; construct: GST-full length.
T1 sequence: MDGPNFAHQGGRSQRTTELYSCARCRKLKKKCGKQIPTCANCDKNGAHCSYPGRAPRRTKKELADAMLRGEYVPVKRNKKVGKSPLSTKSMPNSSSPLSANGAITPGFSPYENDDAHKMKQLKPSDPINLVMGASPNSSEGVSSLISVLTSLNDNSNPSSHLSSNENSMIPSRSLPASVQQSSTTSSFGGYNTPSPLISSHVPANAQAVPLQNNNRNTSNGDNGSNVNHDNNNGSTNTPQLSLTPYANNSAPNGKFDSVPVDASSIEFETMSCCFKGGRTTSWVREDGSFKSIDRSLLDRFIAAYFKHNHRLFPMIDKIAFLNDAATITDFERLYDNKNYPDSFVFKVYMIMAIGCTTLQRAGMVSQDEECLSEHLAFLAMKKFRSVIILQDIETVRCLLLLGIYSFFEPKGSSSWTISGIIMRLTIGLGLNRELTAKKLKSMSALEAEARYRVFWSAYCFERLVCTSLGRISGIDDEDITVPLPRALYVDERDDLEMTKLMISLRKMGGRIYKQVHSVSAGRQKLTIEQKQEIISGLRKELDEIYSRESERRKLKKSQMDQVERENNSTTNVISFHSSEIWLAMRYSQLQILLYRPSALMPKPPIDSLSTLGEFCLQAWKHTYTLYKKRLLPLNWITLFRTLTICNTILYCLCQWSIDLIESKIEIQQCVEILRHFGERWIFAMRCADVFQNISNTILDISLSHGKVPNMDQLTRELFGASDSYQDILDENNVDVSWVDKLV
Outline: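 Each ungapped eight-base word and its reverse complement, pooled, received an E-score from the Universal PBM Analysis Suite. Underlying scans, normalised with masliner, recorded fluorescent anti-GST bound to GST-tagged yeast transcription factors. These were applied at about 100-200 nM to universal all-10-mer Agilent arrays double-stranded by primer extension.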

Row | Sequence | PBM E-score
1 | AGTATCAG | -0.154
2 | ATGGCAAG | -0.0117
3 | CCTAACAG | -0.0238
4 | TCGCCTAA | -0.0792
5 | CATGGCTA | -0.257
6 | GCTTATTA | 0.0873
7 | ACGTTATG | 0.0611
8 | AGCTCATC | -0.255
9 | AACTCGAA | 0.0782
10 | GACGGGCA | 0.216
11 | CGCAGTAC | -0.0628
12 | CTTGCTGC | -0.215
13 | CGTTCAAC | 0.0199
14 | GATGCAAC | -0.0959
15 | TTAAGGAA | -0.136
16 | ACCGTGAG | 0.219
17 | CTAGATCA | -0.276
18 | AGGAAAGG | 0.148
19 | ACACGAAG | -0.0188
20 | ACTCGCCG | 0.0413
21 | CATCCCGC | 0.155
22 | GTACACCA | -0.182
23 | CAGACTCA | -0.255
24 | AGCCGCGA | 0.208
25 | ATACGAGG | -0.136

Row | Sequence | PBM E-score
26 | CGTCGCGC | 0.0574
27 | GGACGATA | 0.0104
28 | AAACTAGT | -0.164
29 | GATTCCGA | 0.238
30 | ATGAGCGC | 0.0769
31 | CGCTCTTC | 0.0619
32 | AAAGATTA | 0.161
33 | GGACAGAA | 0.12
34 | AAGCCCTG | -0.101
35 | AATTTTGC | 0.00812
36 | AATATGCG | -0.0125
37 | GAAATGAC | -0.0378
38 | GCAGGACC | -0.0116
39 | GTTTCCGA | 0.0726
40 | CCACTATA | -0.0706
41 | GCCGGAGC | 0.286
42 | CCCATTCG | -0.0634
43 | AGGGATTC | -0.307
44 | CAGCATCG | -0.122
45 | CGCTGGCA | 0.0768
46 | CCATATGC | 0.0284
47 | CCCCATAA | -0.0966
48 | CCTATTAG | -0.137
49 | GGAACTGA | -0.0768
50 | ACGGATAG | -0.0573

Row | Sequence | PBM E-score
51 | ATGTAAGG | -0.0435
52 | GACTAATA | 0.0517
53 | CGCTTCTC | 0.0972
54 | CCAGAGCC | -0.241
55 | CAGCGTCG | 0.0511
56 | ACGGCCGA | 0.2
57 | GATCTATA | 0.103
58 | ACCTGTCC | -0.065
59 | CTGGCCAC | -0.199
60 | AGTTAGCC | -0.101
61 | CAAACCCG | 0.216
62 | AGTGAACA | -0.0848
63 | TGGTCGAA | -0.359
64 | TAGAAATA | -0.103
65 | GATTTGTA | -0.177
66 | CGCTTTAG | 0.0767
67 | GTTGTTGA | -0.134
68 | AGAATGCC | 0.0721
69 | AAAGACAA | -0.0566
70 | ACCTGTTC | -0.2
71 | CACAGTGA | -0.288
72 | AACGGTTC | 0.0106
73 | CATGTGGG | -0.114
74 | GTCAGTTA | -0.113
75 | GTAATAAA | 0.22

Row | Sequence | PBM E-score
76 | AGCACAAT | -0.248
77 | ACACCATC | -0.0629
78 | CCGGCAAA | 0.237
79 | ATCTACTG | -0.012
80 | GCACGTTA | -0.0204
81 | ACCGACGT | 0.355
82 | CATTCACA | -0.296
83 | ACTTGCTC | -0.251
84 | CTCTTCTC | -0.0917
85 | CCCAGGCG | 0.0265
86 | ACCATAAT | -0.102
87 | CATGTTTA | -0.0394
88 | AAATGCAG | -0.295
89 | GCGCCATA | 0.0695
90 | AGTTTGCA | -0.125
91 | TCAGGGAA | -0.124
92 | TCTTGCCA | -0.162
93 | CACAGATC | -0.0333
94 | AATGGGTC | -0.0706
95 | CGTCGTAA | -0.114
96 | CCGATCCC | 0.266
97 | AAGATTGG | -0.201
98 | GGCACGAC | -0.0677
99 | AAATTCTG | -0.107
100 | ACCTAGTG | -0.0726

Row | Sequence | PBM E-score
101 | CAACTTCC | -0.0598
102 | AGAGACTA | -0.0204
103 | CACAGCTC | -0.255
104 | ACTGTGAA | -0.0488
105 | GGTGAGAA | 0.127
106 | CAAGGCGA | -0.157
107 | CACTTGCA | -0.14
108 | ACTCGATC | -0.191
109 | CAGTTACG | -0.0602
110 | TCCAGAAA | -0.0169
111 | ATGCTATC | -0.00518
112 | CTAAGTGA | -0.0682
113 | CTCCGGAG | 0.283
114 | GACTTAGA | -0.211
115 | ACATTGAG | 0.0192
116 | TCCGCGGA | 0.144
117 | TTACATAA | 0.0508
118 | CACCCTTC | -0.22
119 | CAACAAAA | -0.122
120 | AGGAAACG | -0.031
121 | TGAGGCAA | -0.322
122 | CCCGTAAC | 0.208
123 | ACTCTATG | -0.0372
124 | ACGGTCAG | -0.0787
125 | AGGGTCCA | -0.021

Row | Sequence | PBM E-score
126 | AGTCAAAT | -0.164
127 | ATGATAGG | -0.25
128 | GCATACGC | -0.0349
129 | AGCAGTAA | -0.155
130 | GTGGTTTA | 0.143
131 | CAGAGCGA | -0.00058
132 | AGGGGCGA | -0.0945
133 | TTATTCAA | 0.0979
134 | AACCCTCG | -0.271
135 | CCTCGCAA | -0.0385
136 | ACATCTAA | -0.18
137 | GCGCGCCA | 0.174
138 | ATCTGAGG | -0.107
139 | CGACCCAA | -0.125
140 | GAATTGTC | -0.118
141 | CTCCCGCC | 0.0573
142 | ACGTTCTC | -0.279
143 | AGCAGAGG | -0.278
144 | CGCTTCAC | 0.0234
145 | GGGGAACA | 0.0315
146 | ATACCCGA | 0.273
147 | ACTCTTGC | -0.237
148 | AGAGTAGG | -0.0274
149 | ATCAAATA | -0.0163
150 | ATGTTTTC | -0.0766

Row | Sequence | PBM E-score
151 | GATGTGCA | -0.236
152 | CAAGAACG | -0.0853
153 | ATGGTTGC | -0.259
154 | ATGACGTA | -0.183
155 | ATCCTAAT | -0.0455
156 | ATCATCTA | -0.0932
157 | ACCCAGCA | 0.0438
158 | CATTGGCG | -0.0195
159 | ATAGTGAC | -0.131
160 | CACCCAGA | -0.183
161 | CCTTGTTC | -0.176
162 | GCAGCGAA | -0.0521
163 | AGGAACAG | -0.305
164 | CTACAGAC | -0.0433
165 | ATTCTAGG | -0.169
166 | CACTATAC | -0.101
167 | GGAGACAC | 0.0843
168 | AATGTGTA | -0.183
169 | AGGGACGG | 0.253
170 | CGCCGCGC | 0.368
171 | GAGTGAAC | -0.0964
172 | TATCGCAA | -0.173
173 | CAGAAGCC | 0.0903
174 | ACTTAACA | -0.168
175 | ACAAAGCA | -0.0624

Row | Sequence | PBM E-score
176 | AGCTCACG | -0.232
177 | CGCTACAC | -0.0399
178 | ATACCTGC | -0.0872
179 | CGAGACAA | -0.264
180 | CCATTCAA | -0.227
181 | AGCTAATG | -0.274
182 | ATCGTAAT | -0.0644
183 | CTTTATCA | -0.127
184 | GCAGCGCA | -0.0467
185 | CACAACTC | -0.023
186 | AAACGCCC | 0.22
187 | ATGCATCA | -0.223
188 | GCATCTCA | -0.205
189 | CAAACAAG | -0.0162
190 | ATACAAGG | -0.0423
191 | CAAAGGGG | -0.134
192 | AGATTCAG | -0.128
193 | CCTAGGCC | -0.0439
194 | ACTCTCCT | -0.329
195 | AGCCAGCG | -0.141
196 | CGGAGTGA | 0.391
197 | ACTCTCTA | -0.205
198 | AATGTCAG | -0.128
199 | CAAAGATC | -0.0177
200 | GCCGACGC | 0.316

Row | Sequence | PBM E-score
201 | ACCGGCAA | 0.241
202 | GACGACAC | 0.145
203 | CAGATGAA | -0.316
204 | AACAGCCG | 0.105
205 | ACAGCATA | -0.0871
206 | AGTTTACC | 0.0921
207 | ATCGAAAA | -0.0502
208 | CAGAAACG | 0.106
209 | GCGTCACC | -0.0626
210 | AACCTTCC | -0.135
211 | CTGAAATA | -0.0506
212 | TAATTACA | -0.0745
213 | AAAGTTTA | 0.072
214 | GATGAAAC | -0.00312
215 | CGGGCGCA | 0.231
216 | GGTTTACA | 0.0237
217 | AAGGCCTG | -0.0882
218 | AGCGAATG | -0.223
219 | ACCATACG | -0.0751
